Reference: patent US7592316B2, “Peptides as NS3-serine protease inhibitors of hepatitis C virus” (Schering Corporation, priority 2000, dated 2009)
pKi: −log10 of the molar value. *1 amine or outer side, *2 acyl side, *3 side chain or, on linkers, in order; H or OH if unused. Where a SMILES comes first, the peptide text is derived from it. [ ]: non-standard residue; d: D form. The star is where a group is joined. ξ: configuration not given here. Pro(3R,4S-CMe2) = CC1(C)[C@@H]2[C@@H](C(=O)O)NC[C@@H]21; Pro(4,4-ethylenedioxy) = O=C(O)[C@@H]1CC2(CN1)OCCO2; Pro(trans-4-Ph) = O=C(O)[C@@H]1C[C@@H](c2ccccc2)CN1; Pro(4R-isopentyl) = CC(C)CC[C@H]1CN[C@H](C(=O)O)C1; Pro(4,4-S(CH2)3S) = O=C(O)[C@@H]1CC2(CN1)SCCCS2; X54 = O=C(C(=O)[*:2])C(CCC(F)(F)F)N[*:1]; X33 = CCCC[C@@H](N[*:1])C(=O)C(=O)[*:2]; Pro(4,4-Me2) = CC1(C)CN[C@H](C(=O)O)C1; CH2(1-naphthyl) = c1ccc2c(C*)cccc2c1; Cyclohexanecarbonyl = O=C(C1CCCCC1)*; Isobutyloxycarbonyl = CC(C)COC(=O)*; Hyp = O=C(O)[C@@H]1C[C@@H](O)CN1; X2 = CCCC(N[*:1])C(=O)C(=O)[*:2]; Aad = N[C@@H](CCCC(=O)O)C(=O)O; Chg = N[C@H](C(=O)O)C1CCCCC1; Phg = N[C@H](C(=O)O)c1ccccc1; Tle = CC(C)(C)[C@H](N)C(=O)O; X63 = COc1ccc(OC)c(C(=O)*)n1; ξChg = NC(C(=O)O)C1CCCCC1; ξPhg = NC(C(=O)O)c1ccccc1; Boc = CC(C)(C)OC(=O)*; Bn = c1ccc(C*)cc1; OtBu = CC(C)(C)O*; tBu = CC(C)(C)*; OAll = C=CCO*

These compounds were tested against HCV NS3/NS4A protease (strain 1a) (Hepatitis C virus genotype 1a, UniProt P27958) (assay: biochemical). Conditions: Compounds prepared by Solid Phase Synthesis, Table 3; read-out: Ki* CLASS.

Compound | pKi
CCCC(NC(=O)[C@@H]1C[C@@H](OCc2ccccc2)CN1C(=O)[C@H](CCCC(=O)OC(C)(C)C)NC(=O)C1CCCCC1)C(=O)C(=O)NCC(=O)N[C@H](C(N)=O)c1ccccc1 (some centres unmarked) (Cyclohexanecarbonyl-[Aad](OtBu)[Hyp](Bn)[X2]G[Phg]-NH2) | < 6.00
CCCC(NC(=O)[C@@H]1C[C@@H](OC(C)(C)C)CN1C(=O)[C@@H](NC(=O)OCC(C)C)C1CCCCC1)C(=O)C(=O)NCC(=O)N[C@H](CC(=O)OC(C)(C)C)C(N)=O (some centres unmarked) (Isobutyloxycarbonyl-[Chg][Hyp](tBu)[X2]G[dD](OtBu)-NH2) | < 6.00

Same assay, conditions: HCV protease continuous assay results, Table 1; read-out: Ki* Range

Compound | pKi
CCCC(NC(=O)[C@@H]1C[C@@H](OC(C)(C)C)CN1C(=O)[C@@H](NC(=O)OCC(C)C)C1CCCCC1)C(=O)C(N)=O (some centres unmarked) [Example 304] | < 6.00
CCCCC(NC(=O)[C@@H]1[C@@H]2[C@H](CN1C(=O)[C@@H](NC(=O)OC(C)(C)C)C(C)(C)C)C2(C)C)C(=O)C(=O)OC (some centres unmarked) [Example 305] | < 6.00
CCCC(NC(=O)[C@@H]1CC2(CN1C(=O)[C@@H](NC(=O)OCC(C)C)C1CCCCC1)OCCO2)C(=O)C(=O)NCC(=O)NC(C(N)=O)c1ccccc1 (some centres unmarked) [Example 98] (Isobutyloxycarbonyl-[Chg][Pro(4,4-ethylenedioxy)][X2]G[ξPhg]-NH2) | 6.00 to 7.00
CCCC(NC(=O)[C@@H]1C[C@@H](OCc2ccccc2)CN1C(=O)[C@@H](NC(=O)OCC(C)C)C1CCCCC1)C(=O)C(=O)NCCCC(C(N)=O)c1ccccc1 (some centres unmarked) [Example 97] | < 6.00
CCCC(NC(=O)[C@@H]1C[C@@H](c2ccccc2)CN1C(=O)[C@@H](NC(=O)OCC(C)C)C1CCCCC1)C(=O)C(=O)NCC(=O)NC(C(=O)O)C1CCCCC1 (stereo partly drawn) [Example 82] (Isobutyloxycarbonyl-[Chg][Pro(trans-4-Ph)][X2]G[ξChg]-OH) | 7.00 to 9.00
C=CCOC(=O)CNC(=O)C(=O)C(CCC)NC(=O)[C@@H]1CCCN1C(=O)[C@@H](NC(=O)[C@@H](NC(=O)c1nc(OC)ccc1OC)C(C)C)C1CCCCC1 (some centres unmarked) [Example 65] (X63-V[Chg]P[X2]G-OAll) | < 6.00
C=CCOC(=O)CNC(=O)C(=O)C(CCC)NC(=O)[C@@H]1CCCN1C(=O)c1ccc(N2CCN(C(=O)OC(C)(C)C)CC2)cc1 (some centres unmarked) [Example 2] | < 6.00
CCCC(NC(=O)[C@@H]1CC2(CN1C(=O)[C@@H](NC(=O)OCC(C)C)C(C)(C)C)SCCCS2)C(=O)C(=O)NCC(=O)NC(C(=O)N(C)C)c1ccccc1 (some centres unmarked) [Example 133] (Isobutyloxycarbonyl-[Tle][Pro(4,4-S(CH2)3S)][X2]G[ξPhg]-NMe2) | 7.00 to 9.00

Same assay, conditions: Table 4; HCV NS3/NS4A protease, spectrophotometric assay, 30° C., pH 6.5; read-out: Ki* Range

Compound | pKi
CCCC(NC(=O)[C@@H]1C[C@@H](NC(=O)Nc2ccccc2)CN1C(=O)[C@@H](NC(=O)c1cc(Cl)c(Cl)cc1C(=O)O)C1CCCCC1)C(=O)C(=O)NCC(=O)N[C@H](C(N)=O)c1ccccc1 (some centres unmarked) | 7.00 to 9.00
CCCC(NC(=O)[C@@H]1C[C@@H](NS(=O)(=O)c2ccccc2)CN1C(=O)[C@@H](NC(=O)c1cc(Cl)c(Cl)cc1C(=O)O)C1CCCCC1)C(=O)C(=O)NCC(=O)N[C@H](C(N)=O)c1ccccc1 (some centres unmarked) | 7.00 to 9.00
CCCC(NC(=O)[C@@H]1CC(C)(C)CN1C(=O)[C@@H](NC(=O)OCC(C)C)C1CCCCC1)C(=O)C(=O)N[C@@H](COC)C(=O)N[C@H](C(=O)O)c1ccccc1 (some centres unmarked) (Isobutyloxycarbonyl-[Chg][Pro(4,4-Me2)][X2]S(Me)[Phg]-OH) | 7.00 to 9.00

More lines, now with the values ahead:

pKi | Compound
7.00 to 9.00 | CCCC(NC(=O)C1CC(C)(C)CN1C(=O)[C@@H](NC(=O)O[C@H](C)C(C)C)C1CCCCC1)C(=O)C(=O)NCC(=O)NC(C(=O)N(C)C)c1ccccc1 (some centres unmarked)
7.00 to 9.00 | CCCC(NC(=O)C1C[C@@H](NS(=O)(=O)c2ccccc2)CN1C(=O)[C@@H](NC(=O)OCC(C)C)C1CCCCC1)C(=O)C(=O)NCC(=O)N[C@H](C(N)=O)c1ccccc1 (some centres unmarked)

Same assay, conditions: Table 5; HCV NS3/NS4A protease, 30° C., pH 6.5; read-out: Ki* Range

pKi | Compound
< 6.00 | C=CCNC(=O)C(=O)C(CCC)NC(=O)[C@@H]1C2C(CN1C(=O)[C@@H](NC(=O)NC(C)C)C1Cc3ccccc3C1)C2(C)C (some centres unmarked)
6.00 to 7.00 | C=CCCC(NC(=O)[C@@H]1[C@H]2[C@@H](CN1C(=O)[C@@H](NC(=O)NC1CCCCC1)C1Cc3ccccc3C1)C2(C)C)C(=O)C(=O)NCC=C (some centres unmarked)

Same assay, conditions: Table 5; HCV NS3/NS4A protease, spectrophotometric assay, 30° C., pH 6.5; read-out: Ki* Range

Compound | pKi
CCCC[C@@H](NC(=O)[C@@H]1C[C@@H](CCC(C)C)CN1C(=O)[C@@H](NC(=O)OC(C)(C)C)C(C)(C)C)C(=O)C(=O)NCC(=O)NC(C(=O)N(C)C)c1ccccc1 (stereo partly drawn) (Boc-[Tle][Pro(4R-isopentyl)][X33]G[ξPhg]-NMe2) | < 6.00
CCCC(NC(=O)[C@@H]1C[C@@H](OCc2cccc3ccccc23)CN1C(=O)[C@@H](NC(=O)OC(C)(C)C)C1CCCCC1)C(=O)C(=O)NCC(=O)N[C@H](C(=O)N(C)C)c1ccccc1 (some centres unmarked) (Boc-[Chg][Hyp](CH2(1-naphthyl))[X2]G[Phg]-NMe2) | 7.00 to 9.00
CC(C)(C)OC(=O)N[C@H](C(=O)N1C[C@H]2[C@@H]([C@H]1C(=O)NC(CC1CC1)C(=O)C(=O)O)C2(C)C)C1CCCC1 (some centres unmarked) | 6.00 to 7.00
CC(C)(C)NC(=O)N[C@H](C(=O)N1C[C@H]2[C@@H]([C@H]1C(=O)NC(CC1CC1)C(=O)C(N)=O)C2(Cl)Cl)C1Cc2ccccc2C1 (some centres unmarked) | 7.00 to 9.00
CC(=O)N1CC2C([C@H]1C(=O)NC(CC1CC1)C(=O)C(=O)NCC(=O)N[C@H](C(=O)N(C)C)c1ccccc1)C2(C)C (some centres unmarked) | < 6.00

More lines, now with the values ahead:

pKi | Compound
7.00 to 9.00 | CCCC(NC(=O)C1C2C(CN1C(=O)C(NC(=O)OCC(C)C)C1CCC(F)(F)CC1)C2(C)C)C(=O)C(=O)NCC(=O)N[C@H](C(=O)N(C)C)C1CCCCC1 (some centres unmarked)
6.00 to 7.00 | C=CCNC(=O)C(=O)C(CCC)NC(=O)[C@@H]1[C@H]2[C@@H](CN1C(=O)[C@@H](NC(=O)OC(C)(C)C)C1Cc3ccccc3C1)C2(C)C (some centres unmarked)
7.00 to 9.00 | CC(C)OC(=O)N[C@H](C(=O)N1C[C@H]2[C@@H]([C@H]1C(=O)NC(CC1CC1)C(=O)C(N)=O)C2(C)C)C1Cc2ccccc2C1 (some centres unmarked)
7.00 to 9.00 | CC(C)CC(NC(=O)C1C2CCC(C2)N1C(=O)C(NC(=O)OC(C)(C)C)C(C)(C)C)C(=O)C(=O)NCC(=O)NC(C(=O)N(C)C)c1ccccc1 (centres unmarked)

Same assay, conditions: Table 6; HCV NS3/NS4A protease, 30° C., pH 6.5; read-out: Ki*

Compound | pKi
C#CC1(NC(=O)N[C@H](C(=O)N2C[C@H]3[C@@H]([C@H]2C(=O)NC(CC2CCC2)C(=O)C(N)=O)C3(C)C)C(C)(C)C)CCCCC1 (some centres unmarked) | 7.00 to 9.00
C#CC1(NC(=O)N[C@H](C(=O)N2C[C@H]3[C@@H]([C@H]2C(=O)NC(CC2CC2)C(=O)C(N)=O)C3(C)C)C2CCCCC2)CCCCC1 (some centres unmarked) | 7.00 to 9.00
CCCC(NC(=O)[C@@H]1[C@@H]2[C@H](CN1C(=O)[C@@H](NC(=O)OC(C)(C)C)C1Cc3ccccc3C1)C2(C)C)C(=O)C(=O)NCc1ccccc1 (some centres unmarked) | 6.00 to 7.00
CCCC(NC(=O)[C@@H]1[C@@H]2[C@H](CN1C(=O)[C@@H](NC(=O)OC(C)(C)C)C1Cc3ccccc3C1)C2(C)C)C(=O)C(=O)NCCc1ccccc1 (some centres unmarked) | 6.00 to 7.00
CN(C)C(=O)[C@@H](NC(=O)CNC(=O)C(=O)C(CCC(F)(F)F)NC(=O)[C@@H]1[C@@H]2[C@H](CN1C(=O)[C@@H](NC(=O)OC(C)(C)C)C1CCCCC1)C2(C)C)c1ccccc1 (stereo partly drawn) (Boc-[Chg][Pro(3R,4S-CMe2)][X54]G[Phg]-NMe2) | 7.00 to 9.00

Continued, values first:

pKi | Compound
7.00 to 9.00 | CC(C)(C)OC(=O)N[C@H](C(=O)N1C[C@H]2[C@@H]([C@H]1C(=O)NC(CC1CC1)C(=O)C(=O)NCCS(=O)(=O)Cc1ccccc1)C2(C)C)C(C)(C)C (some centres unmarked)
7.00 to 9.00 | CC(F)(F)CC(NC(=O)[C@@H]1[C@@H]2[C@H](CN1C(=O)[C@@H](NC(=O)NC1(C)CCCCC1)C(C)(C)C)C2(C)C)C(=O)C(N)=O (some centres unmarked)
6.00 to 7.00 | CC(C)NC(=O)N[C@H](C(=O)N1C[C@H]2[C@@H]([C@H]1C(=O)NC(CC1CC1)C(=O)C(N)=O)C2(C)C)C(C)(C)C (some centres unmarked) [drawing 2312]
7.00 to 9.00 | CN(C)C(=O)[C@@H](NC(=O)CNC(=O)C(=O)C(CCC(F)F)NC(=O)[C@@H]1[C@H]2CC(C)(C)C[C@H]2CN1C(=O)[C@@H](NC(=O)OC(C)(C)C)C(C)(C)C)c1ccccc1 (some centres unmarked)
